# According to PubChem BioAssay (Tox21):
# Several values for one entry are separate records, joined by “and”; a condition that tells them apart may be missing. Equal entries are not always repeated. The shares of active, inactive and inconclusive entries below differ from those in the screen. A potency beside an inconclusive call is a rough fit, not a confirmed value. Activity calls are given as the source filed them. Unless noted, calls come from the whole dose curve; as a rule, active = well fitted curve in the direction sought with a large enough effect in the repeat runs; inconclusive = weak or mixed curves; inactive = no such curve, though single readings can be large; an effect the other way counts as inactive or inconclusive.
# Key:
# [1] = qHTS assay to identify small molecule antagonists of the thyroid receptor (TR) signaling pathway (AID 743065); note: nearly all actives have a fitted effect of over 55% in size
# How it was run: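 GH3.TRE-Luc rat pituitary cells carrying two TR response elements driving luciferase were plated for 4 h, given compound plus 1 nM T3 (final), and incubated 23.5 h at 37 C. ONE-Glo luminescence measured reporter inhibition; CellTiter-Fluor fluorescence tracked cytotoxicity.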
# [2] = qHTS assay to identify small molecule antagonists of the thyroid receptor (TR) signaling pathway - cell viability counter screen (AID 743064); conditions: GH3.TRE-Luc viability, CellTiter-Fluor, 24 h; activity change, negative = cytotoxic: at 70.3 µM (top of the series) unless noted; note: nearly all actives have a fitted effect of over 50% in size; for activity change, negative = cytotoxic: % is set by controls: 0 for no effect and ±100 for the full control effect
# How it was run: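 GH3.TRE-Luc rat pituitary cells dosed after 4 hr plating, co-stimulated with T3 at 1 nM final, incubated 23.5 h at 37 C. Viability measured in the same wells by CellTiter-Fluor fluorescence after 30 min further at 37 C.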
# [3] = qHTS assay to identify small molecule antagonists of the estrogen receptor alpha (ER-alpha) signaling pathway - cell viability counter screen (AID 743074; calls by dose curve;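 note: HEK293 cells carrying ER-alpha-UAS-bla reporter stimulated with 17beta-estradiol; nearly all actives have a fitted effect of over 45% in size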)
# [4] = target: Estrogen receptor (Homo sapiens) (UniProt P03372); assay: qHTS assay to identify small molecule agonists of the estrogen receptor alpha (ER-alpha) signaling pathway (AID 743075; calls by dose curve;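 note: HEK293 GripTite cells with ER-alpha and UAS-driven beta-lactamase reporter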)
# UniProt P03372, sequence (P03372 whole entry, looked up): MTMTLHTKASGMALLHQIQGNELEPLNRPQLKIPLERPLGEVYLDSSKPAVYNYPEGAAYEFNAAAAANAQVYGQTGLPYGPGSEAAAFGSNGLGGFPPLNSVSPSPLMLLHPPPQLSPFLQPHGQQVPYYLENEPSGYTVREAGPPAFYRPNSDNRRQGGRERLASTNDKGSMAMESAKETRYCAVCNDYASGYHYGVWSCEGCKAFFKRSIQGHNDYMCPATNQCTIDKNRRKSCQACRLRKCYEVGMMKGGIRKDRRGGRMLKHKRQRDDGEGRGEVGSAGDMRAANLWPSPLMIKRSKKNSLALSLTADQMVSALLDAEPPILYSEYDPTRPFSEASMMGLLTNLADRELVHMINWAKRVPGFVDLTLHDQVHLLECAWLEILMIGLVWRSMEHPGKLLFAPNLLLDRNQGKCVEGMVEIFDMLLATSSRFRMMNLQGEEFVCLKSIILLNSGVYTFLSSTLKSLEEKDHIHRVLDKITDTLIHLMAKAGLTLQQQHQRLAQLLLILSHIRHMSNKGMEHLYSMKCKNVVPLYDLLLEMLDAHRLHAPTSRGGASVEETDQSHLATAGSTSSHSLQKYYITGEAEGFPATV
# Potency is the fitted concentration of half-maximal effect; tags give direction and shape of the fitted curve or compound fluorescence and quenching.
structure (smiles),measurement,setting,value
CC(COc1ccccc1)NC(C)C(O)c1ccc(O)cc1 (centres undefined),Potency,[1],inactive
CCCCc1ncc(/C=C(\Cc2cccs2)C(=O)O)n1Cc1ccc(C(=O)O)cc1,Potency,[1],inactive
O=C1OCCO1,Potency,[2],"inconclusive: 64.6 µM [rising, partial curve, poor fit]"
same,Potency,[3],inactive
OCCOc1cccc(OCCO)c1,Potency,[1],inactive
c1ccc(SCCSc2ccccc2)cc1,Potency,[2],inactive
same,Potency,[3],"inconclusive: 61.1 µM [cytotoxic, partial curve, poor fit]"
O=C(O)c1c2ccccc2cc2ccccc12,Potency,[2],"inconclusive: 27.2 µM [rising, partial curve, poor fit]"
same,Potency,[3],"inconclusive: 21.8 µM [rising, partial curve, poor fit]"
CCCCCCCCCCCCCCOS(=O)(=O)O,Potency,[2],"inconclusive: 30.6 µM [cytotoxic, full curve, poor fit]"
same,Potency,[3],inactive
Cc1cc(OI)c(C(C)C)cc1-c1cc(C(C)C)c(OI)cc1C,Potency,[1],inconclusive: 29.8 µM [inhibitor]
OC[C@H]1O[C@@H](OCCc2ccc(O)cc2)[C@H](O)[C@@H](O)[C@@H]1O,Potency,[2],inactive
same,Potency,[3],"inconclusive: 26.8 µM [rising, single point]"
CCCCC(CC)CCC(CC(C)C)OS(=O)(=O)O (centres undefined),Potency,[2],"inconclusive: 15 µM [rising, full curve, poor fit]"
same,Potency,[3],"inconclusive: 0.952 µM [rising, full curve, poor fit]"
same,Potency,[4],inconclusive: 23.9 µM [partial curve]
S=C([S-])NCCNC(=S)[S-].[Mn+2],Potency,[2],"inconclusive: 0.243 µM [rising, single point]"
same,Potency,[3],"inconclusive: 61.6 µM [rising, partial curve, poor fit]"
Brc1ccc(Oc2ccc(Br)cc2)cc1,Potency,[2],inactive
same,Potency,[3],"inconclusive: 0.617 µM [cytotoxic, full curve, poor fit]"
C[C@@H]1C[C@H]2[C@@H]3CCC4=CC(=O)C=C[C@]4(C)[C@@]3(F)[C@@H](O)C[C@]2(C)[C@H]1C(=O)CO,Potency,[1],"inconclusive: 29.8 µM [inhibitor, single point]"
CCOC(=O)NCCC[Si](OCC)(OCC)OCC,Potency,[2],inactive
same,Potency,[3],inactive
c1cnc2cc3c(cc2n1)C1CNCC3C1,Potency,[1],"inconclusive: 73.6 µM [inhibitor, partial curve]"
C1CSCCS1,Potency,[2],"inconclusive: 6.8 µM [rising, single point]"
same,Potency,[3],inactive
CC(O)CC(C)(C)O (centres undefined),Potency,[2],"inconclusive: 75.4 µM [rising, single point]"
same,Potency,[3],"inconclusive: 38.1 µM [cytotoxic, partial curve] and inconclusive: 23.1 µM [cytotoxic, single point]"
CCNC(=S)NCC,Potency,[2],"inconclusive: 1.35 µM [rising, single point]"
same,Potency,[3],"inactive and inconclusive: 9.77 µM [cytotoxic, partial curve]"
same,Potency,[4],"inconclusive: 61.6 µM [falling, single point]"
CCCCC(CC)CO (centres undefined),"activity change, negative = cytotoxic",[2],inconclusive: 32.9%
same,Potency,[3],"inconclusive: 0.086 µM [cytotoxic, full curve, poor fit]"
CCCCS(=O)(=O)N[C@@H](Cc1ccc(OCCCCC2CCNCC2)cc1)C(=O)O,Potency,[2],inactive
same,Potency,[3],"inconclusive: 16.9 µM [rising, partial curve, poor fit]"
CC(=O)Oc1cc(C(C)C)c(OCCN(C)C)cc1C,Potency,[1],inactive
CC(C)(C)C(=O)OCOP(=O)(COCCn1cnc2c(N)ncnc21)OCOC(=O)C(C)(C)C,Potency,[1],"inconclusive: 33.5 µM [inhibitor, single point]"
CCN(Cc1cccc(S(=O)(=O)O)c1)c1ccc(C(=C2C=CC(=[N+](CC)Cc3cccc(S(=O)(=O)[O-])c3)C=C2)c2ccccc2)cc1,Potency,[1],"inconclusive: 54 µM [inhibitor, single point]"
CCN(CCCCOC(=O)c1ccc(OC)c(OC)c1)C(C)Cc1ccc(OC)cc1 (centres undefined),Potency,[1],"inconclusive: 12.7 µM [inhibitor, partial curve, poor fit]"
COC(c1ccccc1)(c1ccccc1)[C@H](Oc1nc(C)cc(C)n1)C(=O)O,Potency,[2],"inconclusive: 15 µM [rising, partial curve, poor fit]"
same,Potency,[3],inactive
CN(C)CCOCCN(C)C,Potency,[2],inactive
same,Potency,[3],"inconclusive: 25 µM [cytotoxic, single point]"
